Among the data in article PMC8516944 are binding values, retold here.

No constants are given. Whether binding was seen depends on the method and setting. For part of these data: Binding seen in cells or lysates may run through a third protein. Some results given as binding are weak or reduced against the parent protein; the word gives no strength. For part of these data: Where a sequence is shown, tags or fusion partners need not be part of it.

In assay [1] the target is T1, FLAG-AFP (alpha fetoprotein), expressed in HEK293T cells (UniProt P02771).
T1 sequence: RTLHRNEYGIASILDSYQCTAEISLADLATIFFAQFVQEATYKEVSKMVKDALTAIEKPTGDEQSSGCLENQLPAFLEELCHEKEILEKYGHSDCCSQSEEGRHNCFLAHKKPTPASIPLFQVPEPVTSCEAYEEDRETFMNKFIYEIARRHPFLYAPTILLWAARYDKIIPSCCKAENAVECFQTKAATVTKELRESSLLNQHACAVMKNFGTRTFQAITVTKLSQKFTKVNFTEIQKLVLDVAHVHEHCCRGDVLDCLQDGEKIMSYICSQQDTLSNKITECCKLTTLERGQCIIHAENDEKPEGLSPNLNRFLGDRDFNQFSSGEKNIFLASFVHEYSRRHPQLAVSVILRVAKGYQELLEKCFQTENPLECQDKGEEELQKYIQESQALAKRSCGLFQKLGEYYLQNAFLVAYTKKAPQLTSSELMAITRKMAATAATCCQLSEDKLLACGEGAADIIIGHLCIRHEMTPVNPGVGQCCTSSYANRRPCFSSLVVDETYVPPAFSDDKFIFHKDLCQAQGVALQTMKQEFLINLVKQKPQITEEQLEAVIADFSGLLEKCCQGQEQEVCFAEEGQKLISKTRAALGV
In words: co-IP; HEK293T cells co-transfected with FLAG-AFP and HA-GP73 (or HA-tagged deletion mutants); IP lysis buffer (25 mM Tris-HCl pH 7.4, 150 mM NaCl, 1% Nonidet P-40, 1 mM EDTA, 5% glycerol); immunoprecipitation with anti-HA or anti-FLAG, Protein A-Sepharose, overnight at 4 °C; western blotting.

The target of assay [2] is T2, FLAG-AFP expressed in HepG2 cells (UniProt P02771).
T2 sequence: T1 sequence
Description: co-IP; HepG2 cells co-transfected with HA-GP73 and FLAG-AFP, with or without sorafenib (10 μmol/L, 24 h); IP lysis buffer; immunoprecipitation with anti-HA, western blotting with anti-HA or anti-FLAG. In general terms: Immunoblotting shows a protein as a band on a membrane.

The target in assay [3] is T3, endogenous AFP of HepG2 cells (human (endogenous in HepG2)) (UniProt P02771).
T3 sequence: T1 sequence
In words: co-IP; endogenous proteins of HepG2 cells; IP lysis buffer; immunoprecipitation with anti-AFP or anti-GP73 antibody, Protein A-Sepharose, overnight at 4 °C; western blotting.

A further assay deals with T4, GST-AFP (UniProt P02771).
T4 sequence: T1 sequence
In words: pull-down; GST or GST-AFP on glutathione-Sepharose beads in PBS; His-GP73 added for 4 h at 4 °C; western blotting with anti-His; both purified.

For assay [4], the target named is T5, GST-tagged domain III of GP73 (amino acid residues 36–205) (UniProt Q8NBJ4).
T5 sequence: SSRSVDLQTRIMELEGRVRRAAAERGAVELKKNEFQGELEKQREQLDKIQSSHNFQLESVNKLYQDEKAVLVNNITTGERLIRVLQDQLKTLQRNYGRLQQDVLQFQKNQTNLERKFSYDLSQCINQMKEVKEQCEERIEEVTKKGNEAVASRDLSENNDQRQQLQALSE
In words: pull-down; GST or GST-tagged domains of GP73 on glutathione-Sepharose beads; lysate of HEK293T cells transfected with FLAG-AFP; western blotting with anti-FLAG; only the target purified.

B1: HA-GP73 Δ146–205 (protein, UniProt Q8NBJ4)
chain: MMGLGNGRRSMKSPPLVLAALVACIIVLGFNYWIASSRSVDLQTRIMELEGRVRRAAAERGAVELKKNEFQGELEKQREQLDKIQSSHNFQLESVNKLYQDEKAVLVNNITTGERLIRVLQDQLKTLQRNYGRLQQDVLQFQKNQPQPRLQAAGLPHTEVPQGKGNVLGNSKSQTPAPSSEVVLDSKRQVEKEETNEIQVVNEEPQRDRLPQEPGREQVVEDRPVGGRGFGGAGELGQTPQVQAALSVSQENPEMEGPERDQLVIPDGQEEEQEAAGEGRNQQKLRGEDDYNMDENEAESETDKQAALAGNDRNIDVFNVEDQKRDTINLLDQREKRNHTL
Regarding B1, in assay [1], the binding result was “binds”.

B2: HA-GP73 Δ56–92 (protein, UniProt Q8NBJ4)
chain: MMGLGNGRRSMKSPPLVLAALVACIIVLGFNYWIASSRSVDLQTRIMELEGRVRRESVNKLYQDEKAVLVNNITTGERLIRVLQDQLKTLQRNYGRLQQDVLQFQKNQTNLERKFSYDLSQCINQMKEVKEQCEERIEEVTKKGNEAVASRDLSENNDQRQQLQALSEPQPRLQAAGLPHTEVPQGKGNVLGNSKSQTPAPSSEVVLDSKRQVEKEETNEIQVVNEEPQRDRLPQEPGREQVVEDRPVGGRGFGGAGELGQTPQVQAALSVSQENPEMEGPERDQLVIPDGQEEEQEAAGEGRNQQKLRGEDDYNMDENEAESETDKQAALAGNDRNIDVFNVEDQKRDTINLLDQREKRNHTL
B2: the binding entry in assay [1] is “no binding”.

B3: HA-GP73 Δ91–150 (protein, UniProt Q8NBJ4)
chain: MMGLGNGRRSMKSPPLVLAALVACIIVLGFNYWIASSRSVDLQTRIMELEGRVRRAAAERGAVELKKNEFQGELEKQREQLDKIQSSHNFKFSYDLSQCINQMKEVKEQCEERIEEVTKKGNEAVASRDLSENNDQRQQLQALSEPQPRLQAAGLPHTEVPQGKGNVLGNSKSQTPAPSSEVVLDSKRQVEKEETNEIQVVNEEPQRDRLPQEPGREQVVEDRPVGGRGFGGAGELGQTPQVQAALSVSQENPEMEGPERDQLVIPDGQEEEQEAAGEGRNQQKLRGEDDYNMDENEAESETDKQAALAGNDRNIDVFNVEDQKRDTINLLDQREKRNHTL
On to B3, for which the binding entry in assay [1] is on record as “binds”.

B4: HA-GP73 (Golgi protein 73), wild type, expressed in HEK293T cells (protein, UniProt Q8NBJ4 1-401)
chain: MMGLGNGRRSMKSPPLVLAALVACIIVLGFNYWIASSRSVDLQTRIMELEGRVRRAAAERGAVELKKNEFQGELEKQREQLDKIQSSHNFQLESVNKLYQDEKAVLVNNITTGERLIRVLQDQLKTLQRNYGRLQQDVLQFQKNQTNLERKFSYDLSQCINQMKEVKEQCEERIEEVTKKGNEAVASRDLSENNDQRQQLQALSEPQPRLQAAGLPHTEVPQGKGNVLGNSKSQTPAPSSEVVLDSKRQVEKEETNEIQVVNEEPQRDRLPQEPGREQVVEDRPVGGRGFGGAGELGQTPQVQAALSVSQENPEMEGPERDQLVIPDGQEEEQEAAGEGRNQQKLRGEDDYNMDENEAESETDKQAALAGNDRNIDVFNVEDQKRDTINLLDQREKRNHTL
As for B4, in assay [1], the binding entry is “binds”.

B5: HA-GP73 expressed in HepG2 cells (protein, UniProt Q8NBJ4 1-401)
chain: B4 chain
Turning to B5, in assay [2], the binding result is “binds”.

B6: endogenous GP73 of HepG2 cells (protein, UniProt Q8NBJ4 1-401)
chain: B4 chain
Turning to B6, in assay [3], the binding entry was “binds”.

B7: His-GP73 (protein, UniProt Q8NBJ4 1-401)
chain: B4 chain
On to B7, for which the binding entry with GST-AFP is “binds”.

B8: HA-GP73 Δ36–100 (protein, UniProt Q8NBJ4)
chain: MMGLGNGRRSMKSPPLVLAALVACIIVLGFNYWIADEKAVLVNNITTGERLIRVLQDQLKTLQRNYGRLQQDVLQFQKNQTNLERKFSYDLSQCINQMKEVKEQCEERIEEVTKKGNEAVASRDLSENNDQRQQLQALSEPQPRLQAAGLPHTEVPQGKGNVLGNSKSQTPAPSSEVVLDSKRQVEKEETNEIQVVNEEPQRDRLPQEPGREQVVEDRPVGGRGFGGAGELGQTPQVQAALSVSQENPEMEGPERDQLVIPDGQEEEQEAAGEGRNQQKLRGEDDYNMDENEAESETDKQAALAGNDRNIDVFNVEDQKRDTINLLDQREKRNHTL
As to B8, the binding result in assay [1] is “no binding”.

B9: FLAG-AFP (alpha fetoprotein), expressed in HEK293T cells (protein, UniProt P02771 19-609)
chain: T1 sequence
B9: the binding entry in assay [4] is listed as “binds”.
